Source: patent US20250297021A1 (SHANDONG SIMCERE BIOPHARMACEUTICAL CO NO 1, published 2025)

T1: human BCMA-His protein (human, UniProt Q02223 1-54)
T1 construct: Bought protein; also called human BCMA protein; BCMA antigen protein; not shown: His tag
T1 sequence (looked up): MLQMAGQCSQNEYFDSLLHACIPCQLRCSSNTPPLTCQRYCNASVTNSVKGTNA

T2: human BCMA on cells (human, UniProt Q02223 1-184)
T2 construct: whole, on cells; also called H929 cells; U266 cells
T2 sequence (looked up): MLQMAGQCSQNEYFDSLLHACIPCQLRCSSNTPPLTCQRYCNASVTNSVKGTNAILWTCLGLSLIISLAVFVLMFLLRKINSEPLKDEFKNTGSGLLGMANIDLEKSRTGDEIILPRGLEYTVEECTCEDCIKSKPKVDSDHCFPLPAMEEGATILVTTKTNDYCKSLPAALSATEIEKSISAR


Experiments:
human BCMA-His protein [1] = molecular target: T1, human BCMA-His protein; test: competition ELISA vs hAPRIL-biotin on coated human BCMA; antibody 1.23 nM
Experimental: (§1) The antigen protein was diluted with PBS to a final concentration of 1 μg/mL, and then added to a 96-well ELISA plate at 50 μl per well. The plate was sealed with a plastic film and incubated overnight at 4° C., the plate was washed twice with PBS the next day, and then a blocking solution [PBS+2% (w/v) BSA] was added for blocking at room temperature for 2 h. The blocking solution was discarded, the plate was washed 3 times with PBS, and 200 nM BCMA human-mouse chimeric antibody diluted gradiently or negative control antibody was added at 50 μl/well. hAPRIL-biotin (purchased from Acro, catalog number: APL-H82F5) was diluted to 0.5 μg/mL, with 50 μl per well. After incubation at 37° C. for 1.5 h, the plate was washed 3 times with PBS. HRP (horseradish peroxidase)-labeled secondary antibody (purchased from Sigma, catalog number: S2438-250 ug) was added, and incubated at 37° C. for 1 h, and the plate was washed 5 times with PBS. TMB substrate was added at 50 μl/well, and incubated at room temperature for 10 min, then a stop solution (1.0 M HCl) was added at 50 μl/well. The OD450 nm values were read by an ELISA microplate reader (Multimode Plate Reader, EnSight, purchased from Perkin Elmer).

human BCMA-His protein [2] = molecular target: T1, human BCMA-His protein; test: SPR, antibody captured on Protein A chip, BCMA-His in solution, 1:1 Langmuir
Experimental: A sample buffer and a running buffer were HBS-EP+ (10 mM HEPES, 150 mM NaCl, 3 mM EDTA and 0.05% surfactant P20) (GE Healthcare; BR-1006-69). The flow-through cell was set to 25° C. The sample block was set to 16° C. Both were pretreated with the running buffer. In each cycle, an antibody to be tested was first captured with a Protein A chip, and then a single concentration of BCMA antigen protein was injected. The binding and dissociation processes of the antibody and the antigen protein were recorded, and finally Glycine pH 1.5 (GE Helthcare; BR-1003-54) was used to complete chip regeneration. Binding was measured by injecting different concentrations of BCMA-His in solution for 240 s with a flow rate of 30 μL/min. The concentration started from 200 nM (see the detailed results for the actual concentration in the test) and was diluted at 1:1, making a total of 5 concentrations. The dissociation phase was monitored for up to 600 s and was triggered by switching from sample solution to running buffer. The surface was regenerated by washing with a 10 mM glycine solution (pH 1.5) for 30 s at a flow rate of 30 μL/min. Bulk refractive index difference was corrected by subtracting the response obtained from the goat anti-human Fc surface. Blank injection was also subtracted (=double reference). For calculation of apparent KD and other kinetic parameters, Langmuir 1:1 model was used. The binding rate (Kₐ), dissociation rate (Kdis) and binding affinity (KD) of the chimeric antibodies to human BCMA protein are shown in the table, wherein REGN5459-hlgG1 and HPN217-hHcAb antibodies were used as controls.

human BCMA-His protein [3] = molecular target: T1, human BCMA-His protein; test: competition ELISA vs hAPRIL-biotin on coated human BCMA; antibody 0.14 nM
Experimental: as §1

human BCMA-His protein [4] = molecular target: T1, human BCMA-His protein; test: competition ELISA vs hAPRIL-biotin on coated human BCMA; antibody 33.33 nM
Experimental: as §1

human BCMA-His protein [5] = molecular target: T1, human BCMA-His protein; test: competition ELISA vs hAPRIL-biotin on coated human BCMA; antibody 0.41 nM
Experimental: as §1

human BCMA-His protein [6] = molecular target: T1, human BCMA-His protein; test: competition ELISA vs hAPRIL-biotin on coated human BCMA; antibody 11.11 nM
Experimental: as §1

human BCMA-His protein [7] = molecular target: T1, human BCMA-His protein; test: competition ELISA vs hAPRIL-biotin on coated human BCMA; antibody 3.70 nM
Experimental: as §1

human BCMA-His protein [8] = molecular target: T1, human BCMA-His protein; test: competition ELISA vs hAPRIL-biotin on coated human BCMA; antibody 100.00 nM
Experimental: as §1

human BCMA on cells [9] = molecular target: T2, human BCMA on cells; test: FACS, U266 cells
Experimental: (§2) H929 cells, U266 cells and RPMI8226 cells were subjected to scale-up culture in T-75 cell culture flask to logarithmic growth phase, and the cells were pipetted to single cell suspension. After counting the cells, centrifugation was performed and the cell pellet was resuspended in FACS buffer (PBS+2% fetal calf serum) to 2×10⁶ cells per ml, and the obtained suspension was added to a 96-well FACS reaction plate at 50 μl per well.

human BCMA on cells [10] = molecular target: T2, human BCMA on cells; test: FACS, H929 cells
Experimental: as §2

monkey BCMA-His protein = molecular target: T3, monkey BCMA-His protein (monkey, UniProt A0A2K5UD97 1-53); test: ELISA, monkey BCMA-His coated
Chain of monkey BCMA-His protein (A0A2K5UD97 entry or part of it limits assumed): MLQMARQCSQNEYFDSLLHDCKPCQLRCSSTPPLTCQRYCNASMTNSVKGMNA
T3 construct: bought; monkey species not further stated for this product; also called monkey BCMA protein
Experimental: The binding activity of the control antibody to human BCMA-His protein (purchased from Acro, catalog number: BCA-H522y) and monkey BCMA-His protein (purchased from Acro, catalog number: BCA-C52H7) was detected by ELISA. The specific method was as follows: The antigen protein was diluted with PBS to a final concentration of 1 μg/mL, and then added to a 96-well ELISA plate at 50 μl per well. The plate was sealed with a plastic film and incubated overnight at 4° C., the plate was washed twice with PBS the next day, and then a blocking solution [PBS+2% (w/v) BSA] was added for blocking at room temperature for 2 h. The blocking solution was poured off and 50 μl of 100 nM serially diluted control antibody or negative control antibody was added to each well. After incubation at 37° C. for 2 h, the plate was washed 3 times with PBS. HRP (horseradish peroxidase)-labeled secondary antibody (purchased from Merck, catalog number: AP113P) was added, and incubated at 37° C. for 1 h, and the plate was washed 5 times with PBS. TMB substrate was added at 50 μl/well, and incubated at room temperature for 10 min, then a stop solution (1.0 M HCl) was added at 50 μl/well. The OD450 nm values were read by an ELISA microplate reader (Multimode Plate Reader, EnSight, purchased from Perkin Elmer). The results are shown in Tables 2 and 3 and FIGS. 1A and 1B. […]

human BCMA on cells [11] = molecular target: T2, human BCMA on cells; test: FACS, RPMI8226 cells
Experimental: as §2

| Binder | OD450 (human BCMA-His protein [1]) [OD450] | Kd (human BCMA-His protein [2]) [nM] | koff (human BCMA-His protein [2]) [s⁻¹] | kon (human BCMA-His protein [2]) [M⁻¹ s⁻¹] | OD450 (human BCMA-His protein [3]) [OD450] | OD450 (human BCMA-His protein [4]) [OD450] | OD450 (human BCMA-His protein [5]) [OD450] | OD450 (human BCMA-His protein [6]) [OD450] | OD450 (human BCMA-His protein [7]) [OD450] | OD450 (human BCMA-His protein [8]) [OD450] | EC50 (human BCMA on cells [9]) [nM] | EC50 (human BCMA on cells [10]) [nM] | binding result (monkey BCMA-His protein) | EC50 (human BCMA on cells [11]) [nM] |
| --- | --- | --- | --- | --- | --- | --- | --- | --- | --- | --- | --- | --- | --- | --- |
| BCMA-mAb07 (scFv, also called BCMA human-mouse chimeric antibody (scFv-Fc)) scFv: QVQLQQSGAELAKPGASVKLSCKASGYTFTDYWTHWVKQRPGQGLEWIGYINHGSGYTKYNQKFKDKATLTADKSSSTAYMQVSSLTYEDSAVYYCARLTGSYYFDYWGQGTTLTVSSGGGGSGGGGSGGGGSQIVLTQSPAIMSASPGEKVTMTCSASSSVSYMHWYQQKSGTSPKRWIYDTSKLASGVPPRFSGSGSGTSYSLTISSMEAEDAATYYCQQWSSNPLTFGAGTKLELK[human IgG1 Fc with C220S (EU numbers) not spelt out] | 1.34 | 0.792 | 0.00106 | 1.34e+06 | 1.41 | 0.09 | 1.43 | 0.31 | 1.06 | 0.08 | – | – | – | – |
| HPN217-hHcAb (Fc fusion) VHH: EVQLVESGGGLVQPGRSLTLSCAASTNIFSISPYGWYRQAPGKQRELVAAIHGTSTLYADSVKGRFTISRDNAKNSIYLQMNSLRPEDTALYYCNKVPWGDYHPGNVYWGQGTQVTVSS[human IgG1 Fc with C220S (EU numbers) not spelt out] | – | – | – | – | – | – | – | – | – | – | 1.83 | 2.24 | no binding (tested: 100 nM) | 1.38 |
| BCMA-mAb06 (scFv, also called BCMA human-mouse chimeric antibody (scFv-Fc)) scFv: EVKLLQSGGGLVQPGGSLKLSCAASGIDFSRYWMSWVRRAPGKGLEWIGEINPDSSTINYAPSLKDEFIISRDNAKNTLYLQMSKVRSEDTALYYCAIFYYANYYAMDYWGQGTSVTVSSGGGGSGGGGSGGGGSDIVMTQSQKFMSTSVGDRVSVTCKASQNVDTNVAWYQQKPGQSPKALIYSASYRFSGVPDRFTGSGSGTDFTLTISNVQSEDLAEYFCQQYNGYPFTFASGTKLEIK[human IgG1 Fc with C220S (EU numbers) not spelt out] | 1.16 | 0.398 | 0.000353 | 885000 | 1.29 | 0.07 | 1.29 | 0.12 | 0.86 | 0.07 | – | – | – | – |
| BCMA-mAb05 (scFv, also called BCMA human-mouse chimeric antibody (scFv-Fc)) scFv: QGQMQQSDAELVKPGASVQISCKASGYMFTDHTFHWMRQRPEQGLEWIGYIYPRDDNTKYNEKFKGKATLTADKSSSTAYIHLNSLTSEDSAVYFCARAGYYGSSHAMDYWGQGTSVTVSSGGGGSGGGGSGGGGSDIVMTQSHKFMSTSVGDRVSITCKASQDVSTAVAWYQQKPGQSPRLLIYSASSRYTGVPDRFTGSGSGTDFTFTISSVQTEDLAVYYCQQLYSTPWTFGGGTKLEIK[human IgG1 Fc with C220S (EU numbers) not spelt out] | 1.22 | 0.0258 | 2.96e-05 | 1.15e+06 | 1.26 | 0.07 | 1.26 | 0.22 | 1 | 0.06 | – | – | – | – |
